In paper PMC4336329 (PLoS ONE, 2015):
Hit rate of the full screen: of about 310,000 compounds, about 2,200 (0.71%) showed an effect of 50% or more. The effect is printed as a negative number. The list shows a part of the results. Where a SMILES comes first, the peptide text is derived from it. [ ]: non-standard residue; d: D form. The star is where a group is joined. Tic = O=C(O)[C@@H]1Cc2ccccc2CN1; Boc = CC(C)(C)OC(=O)*

Each compound was assayed against human ether-à-go-go-related gene (hERG) potassium channel (human, UniProt Q12809) (assay: primary screen, population patch clamp on CHO cells stably expressing hERG).
Sequence of human ether-à-go-go-related gene (hERG) potassium channel (Q12809 whole entry, looked up): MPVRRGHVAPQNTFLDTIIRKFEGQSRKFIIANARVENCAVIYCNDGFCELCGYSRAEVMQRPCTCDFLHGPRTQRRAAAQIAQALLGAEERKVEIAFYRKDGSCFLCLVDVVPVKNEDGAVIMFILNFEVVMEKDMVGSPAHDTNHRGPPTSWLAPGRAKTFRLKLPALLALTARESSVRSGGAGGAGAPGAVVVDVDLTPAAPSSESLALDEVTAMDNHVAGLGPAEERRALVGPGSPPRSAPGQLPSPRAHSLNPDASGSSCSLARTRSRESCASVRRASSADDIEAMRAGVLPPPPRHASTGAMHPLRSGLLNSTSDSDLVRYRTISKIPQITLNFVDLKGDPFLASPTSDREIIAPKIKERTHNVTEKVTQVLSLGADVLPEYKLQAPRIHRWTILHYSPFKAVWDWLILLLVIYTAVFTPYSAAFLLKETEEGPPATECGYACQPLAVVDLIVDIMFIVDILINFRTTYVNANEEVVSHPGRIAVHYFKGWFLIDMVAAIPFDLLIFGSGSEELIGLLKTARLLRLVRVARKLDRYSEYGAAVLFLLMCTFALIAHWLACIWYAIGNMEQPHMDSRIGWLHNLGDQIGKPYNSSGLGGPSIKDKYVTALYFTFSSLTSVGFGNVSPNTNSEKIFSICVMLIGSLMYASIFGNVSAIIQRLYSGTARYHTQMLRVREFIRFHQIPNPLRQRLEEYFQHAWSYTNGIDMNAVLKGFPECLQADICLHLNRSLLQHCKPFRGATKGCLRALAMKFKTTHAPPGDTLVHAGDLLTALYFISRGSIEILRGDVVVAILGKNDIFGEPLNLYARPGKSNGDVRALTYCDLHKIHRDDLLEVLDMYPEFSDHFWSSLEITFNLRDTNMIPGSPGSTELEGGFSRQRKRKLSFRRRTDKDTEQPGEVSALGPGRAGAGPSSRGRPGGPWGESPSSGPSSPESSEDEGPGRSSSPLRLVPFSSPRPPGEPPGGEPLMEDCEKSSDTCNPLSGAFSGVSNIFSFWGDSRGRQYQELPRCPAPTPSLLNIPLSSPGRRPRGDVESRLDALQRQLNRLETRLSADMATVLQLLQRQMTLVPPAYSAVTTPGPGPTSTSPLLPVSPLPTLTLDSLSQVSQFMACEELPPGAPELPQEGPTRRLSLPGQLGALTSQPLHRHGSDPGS

| Compound | hERG current change (%, negative = inhibition) at 1uM [%] |
| --- | --- |
| COc1ccc(CNC(=O)C(=O)NCC2OCCN2S(=O)(=O)c2ccc(F)cc2)cc1 (centres unmarked) | 10.7 |
| Cc1cccc(N2C(=O)CC(N3CCN(c4ccccn4)CC3)C2=O)c1 (centres unmarked) | 15.8 |
| O=C(/C=C/c1cccc(Cl)c1)c1ccc([N+](=O)[O-])o1 | -5.37 |
| C/C(=N\Nc1nccnc1Cl)c1ccc(Br)cc1 | 4.33 |
| Cc1cccc2cc3c(N)c(C(=O)N4CCCc5ccccc54)sc3nc12 | 6.2 |
| Cc1ccc(OCc2nnc(NC(=O)OCC(C)C)s2)cc1 | 17.9 |
| COc1cc2[nH]c(=O)n(CCC(=O)N3CCc4ccccc4C3)c(=O)c2cc1OC | 8.72 |
| Nn1c(-c2cccs2)nc2sc3c(c2c1=O)CCCC3 | 3.04 |
| CC1(O)c2ccccc2C(=O)N1Cc1ccccc1 (centres unmarked) | -7.37 |
| O=C(Nc1ccccc1Cl)N(Cc1nc2ccccc2c(=O)[nH]1)Cc1cccs1 | 5.09 |
| CC(C)(C)OC(=O)N1Cc2ccccc2C[C@H]1C(=O)N1CCC[C@H]1C(=O)O (Boc-[Tic]-Pro-OH) | 12.1 |
| O=C(NCc1nnc(SCC(=O)N2CCCCC2)o1)c1c(F)cccc1Cl | 14.4 |
| CCOC(=O)C1(CCOc2ccccc2)CCN(CC=C(C)C)CC1 | -17.8 |
| CC1=C(C(=O)OCCCBr)C(c2ccc3c(c2)OCO3)NC(=O)N1 (centres unmarked) | 9.35 |
| Clc1ccc(Oc2nc(N3CCOCC3)nc(N3CCOCC3)n2)c(C2CCCCC2)c1 | 10.6 |
| Cc1nn(-c2ccccc2)c(C)c1C(=O)NNC(=O)C(F)(F)F | 10.4 |
| OCCCNC(=S)NC1CCCC1 | 12.9 |
| COc1ccccc1NC(=O)Cc1c(F)cccc1Cl | 15.9 |
| COc1ccc(C(=O)NCC(=O)N/N=C/c2cn(C)c3ccccc23)cc1OC | 10.1 |

| Compound | hERG current change (%, negative = inhibition) at 1uM [%] |
| --- | --- |
| COc1ccc(N2CCN(S(=O)(=O)c3c(C)nc4sccn4c3=O)CC2)cc1 | 9.52 |
| CCOC(=O)c1cc2sc(C)cc2n1CC(=O)Nc1cccc(C)c1C | -12.8 |
| O=C(Cc1ccc(Cl)c(Cl)c1)Nc1ccc2[nH]c(=O)[nH]c2c1 | 4.75 |
| Cc1ccc(-c2csc(N3CCN(c4cc5c(cc4Cl)nc(-c4ccncc4)n5CCOCCO)CC3)n2)cc1 | 6.94 |
| COc1ccc(C2OC(=O)CC2C(=O)NC2CCCCCC2)cc1OC (centres unmarked) | -2.2 |
| Cc1ccc(C)n1-c1ccc(C(=O)NN=C2CCCC2)cc1 | 5.38 |
| Cc1ccc(C(=O)NNC(=O)CSc2nnc(-c3ccccc3)n2Cc2ccccc2)cc1 | 3.13 |
| Cc1ccc(-c2cc3nc(C)cc(NCc4ccco4)n3n2)cc1 | -7.85 |
| Cc1cc(C)n(-c2cccc(CN(C)Cc3nc(-c4cnccn4)no3)c2)n1 | -5.38 |
| CC(C)Sc1sc(C(=O)O)c(-c2ccc(Cl)cc2)c1C#N | 10.8 |
| O=C(c1ccccc1[N+](=O)[O-])N1CC2C3C=CC(C3)C2C1 (centres unmarked) | 19.8 |
| Cc1ccc(C)c(-c2csc(-c3cccnc3)n2)c1 | 15.1 |
| O=C(O)CCCCCN1C(=O)C2CCCCC2C1=O (centres unmarked) | 8.83 |
| Cc1cc(OC(=O)c2ccccc2Cl)c([N+](=O)[O-])c(=O)[nH]1 | 9.95 |
| COc1ccccc1C(=O)Nc1nnc(-c2ccc3c(c2)CCCC3)o1 | 12.7 |
| COc1ccc(NC(=O)C/C(C)=N/NC(=O)c2cnccn2)c(OC)c1 | 17 |
| Cc1cc(S(=O)(=O)N2CCCOC2CNC(=O)C(=O)NCCCN2CCOCC2)ccc1F (centres unmarked) | 15.5 |
| O=C(Oc1ccc(/C=N/n2cnnc2)cc1)c1cccc([N+](=O)[O-])c1 | 12.3 |
| O=C(Cn1cnc2c(nnn2-c2cccc(Cl)c2)c1=O)NCc1ccccc1 | 5.51 |

| Compound | hERG current change (%, negative = inhibition) at 1uM [%] |
| --- | --- |
| O=C(CSc1ncn[nH]1)Nc1nsc(-c2ccccc2)n1 | 0.0158 |
| O=C(c1cccc(OC2CCN(Cc3ccc(F)cc3Cl)CC2)c1)N1CCCC1 | 11 |
| CCOC(=O)c1ccc(NC(=O)NCc2c(C)nn(CC)c2C)cc1 | 15.5 |
| [O-]/[N+](=C\c1ccc(OC(F)F)cc1)c1ccccc1 | 2.04 |
| Cc1[nH]n(-c2ccccc2)c(=O)c1-c1ccc(Cl)cc1 | 11.7 |
| CCN(CC)C(=O)c1ccc(NC(=O)COc2ccc(-c3nn(C)c(=O)c4ccccc34)cc2)cc1 | 3.48 |
| Cc1ccc(NC(=O)CCC(=O)N/N=C/c2ccco2)c(C)c1 | 11 |
| CN(C)S(=O)(=O)c1ccc(NC(=O)c2cc(-c3cccs3)nc3ccccc23)cc1 | 14.6 |
| O=C(Nc1cccc(S(=O)(=O)N2CCCCCC2)c1)C1CCN(C(=O)c2ccc(Cl)cc2)CC1 | -10.9 |
| N#Cc1cnn2c(-c3cccc(C(F)(F)F)c3)ccnc12 | 1.86 |
| O=c1c(Cl)c(NCc2ccccc2Cl)cnn1C12CC3CC(CC(C3)C1)C2 | 2.59 |
| CC12OC1C1(O)CCCC1=CC2=O (centres unmarked) | 13.1 |
| Cc1cc(C)n(C(=O)Cn2nc(C)c(Cl)c2C)n1 | -0.551 |
| COc1ccc(OCC(=O)OCCN(C)C)cc1.Cl | 6.29 |
| COCc1ccc([C@@H]2C[C@H]3CN(Cc4cccnc4)C(=O)[C@]34CCCN24)o1 | 5.22 |
| COc1ccc(-n2c(COc3ccc4c(c3)OCO4)nnc2SCC(=O)O)cc1 | 11.3 |
| CCS(=O)(=O)n1nc(-c2ccccc2)nc1N | 8.92 |
| COC(=O)c1nnn(CC(=O)NC(=O)Nc2cccc(C)c2C)c1C(=O)OC | 15.3 |
